# Measurements published in PubChem BioAssay AID493131 (Broad Institute, 2011).
# Screen size: about 340,000 compounds; about 3,300 (0.97%) were called active. Inconclusive results, whose numbers are uncertain, are shown with a selection of clear calls.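 The calls were made as follows: active = mean activation above about 17%, with every replicate also reaching it (limit read from the data, passing the limit was not always enough); inconclusive = only one of the two conditions met; inactive = the rest.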
# Target: Protein FosB (Mus musculus) (UniProt P13346)
# Sequence of UniProt P13346 (P13346 whole entry, looked up): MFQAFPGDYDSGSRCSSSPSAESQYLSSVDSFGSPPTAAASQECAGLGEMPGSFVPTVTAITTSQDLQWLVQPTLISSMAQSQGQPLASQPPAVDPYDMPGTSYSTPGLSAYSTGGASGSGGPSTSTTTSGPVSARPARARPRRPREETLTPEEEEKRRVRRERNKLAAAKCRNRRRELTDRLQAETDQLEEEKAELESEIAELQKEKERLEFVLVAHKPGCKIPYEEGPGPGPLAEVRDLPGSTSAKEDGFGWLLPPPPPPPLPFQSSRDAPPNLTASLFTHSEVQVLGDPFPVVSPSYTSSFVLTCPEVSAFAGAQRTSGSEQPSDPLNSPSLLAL
# Test: enhancers of mouse delta FosB DNA binding – biochemical, fluorescence polarization, TAMRA-CDK5 oligo, single point, primary screen (AID 493131);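 also: fluorescence polarization rise as delta FosB binds a TAMRA Cdk5 AP-1 oligo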
# Conditions: purified delta FosB, at 25 µM, active compounds read high, percent of positive-control signal above neutral wells
row,Compound,activation
1,Cc1cc(NC(=O)c2ccc(NC(=O)c3cccs3)cc2)no1,inconclusive: 16.9%
2,COc1ccc(NS(=O)(=O)c2cc(NC(=O)c3ccc(S(=O)(=O)N(C)C)cc3)ccc2N2CCOCC2)cc1,inconclusive: 17%
3,O=C(/C=C/c1ccc(Cl)c([N+](=O)[O-])c1)Nc1ccc(N2CCCC2)c(Cl)c1,inactive: -0.846%
4,Cc1ccc(NC(=O)Cn2nc([N+](=O)[O-])c(Br)c2C)cc1C,active: 49.2%
5,COc1cccc(NC(=O)CSc2nc3ncc(Br)cc3[nH]2)c1,inconclusive: 18.9%
6,CC(NC(c1ccccc1)c1ccccc1)C(=O)N1CCCc2ccccc21 (stereo unspecified),inactive: -11.1%
7,Cc1ccsc1/C=N\NC(=O)CCc1c(C)n[nH]c1C,inactive: -9.01%
8,COc1ccc(OC)c(-c2nc(C(=O)NCCCN3CCOCC3)cc3c2[nH]c2ccccc23)c1,inactive: 5.79%
9,O=C(Nc1ccccc1C(=O)NCc1ccco1)Nc1cccc2ccccc12,inconclusive: 19.7%
10,CCN1C(=O)CC(C(C)C)N(C2CCCC2)c2nc(Nc3ccc(C(=O)NC4CCN(C)CC4)cc3OC)ncc21 (stereo unspecified),inactive: 12.3%
11,COC(=O)c1ccc(CNC(=O)CNC(=O)c2sc3ccccc3c2Cl)cc1,inconclusive: 17.9%
12,COc1ccc(OC)c(NC(=O)c2cc(-c3cc(Cl)ccc3O)n[nH]2)c1,inconclusive: 19.7%
13,COc1cc(-c2cc(C(=O)Nc3ccncc3)c3ccccc3n2)cc(OC)c1OC,inconclusive: 20.5%
14,CCCCc1ccc(/C=C2/C(=O)ON=C2c2ccccc2)s1,inactive: -6.34%
15,CC(=O)Nc1cc2c(cc1[N+](=O)[O-])-c1ccccc1C2=NO,inactive: 5.61%
16,Cc1ccc(CNC(=O)Cn2c(=O)n(-c3ccccc3)c(=O)c3sccc32)cc1,active: 21.1%
17,COc1ccc(OC)c(CCNC(=O)Cn2nc(C)c3c(C)n(-c4ccc(C)cc4)nc3c2=O)c1,inconclusive: 16.5%
18,COc1cccc(NC(=O)CN(C)C(=O)c2ccc(NC(=O)CC3SC(N4CCCCC4)=NC3=O)cc2)c1 (stereo unspecified),inactive: 3.48%
19,Cc1ccc(CNc2nc(-c3cccs3)nc3ccccc23)cc1,inconclusive: 17.8%
20,COc1ccc(C(=O)Nc2ccc(NC(=O)c3cccs3)cc2)cc1Cl,inconclusive: 28.3%
21,COc1ccc(CCn2c(C)cc(C(=O)CN3C(=O)C(=O)N(C4CCCC4)C3=O)c2C)cc1OC,inactive: -6.41%

row,Compound,activation
1,Cc1cccc(/C=C2/Sc3ccc(C(=O)NCCN4CCCC4)cc3NC2=O)c1,inconclusive: 18.3%
2,O=S(=O)(Nc1cccnc1)c1ccc(C2CCCCC2)cc1,inconclusive: 16.4%
3,Cc1nn(-c2ccc(C(=O)Nc3nnc(C4CC4)s3)cc2)c(C)c1Cl,inconclusive: 16.7%
4,Cc1ccc(NCc2nnc(SCC(=O)c3ccc4c(c3)OCCO4)o2)c(C)c1,active: 28.9%
5,Cc1cc(C(=O)COC(=O)c2ccc(N)c([N+](=O)[O-])c2)c(C)n1Cc1ccc2c(c1)OCO2,inactive: 0.383%
6,CN(CC(O)Cn1c2ccccc2c2ccccc21)S(C)(=O)=O (stereo unspecified),inactive: -1.17%
7,COc1cc(/C=N/OCC(=O)NC2CCCCC2C)ccc1OCc1ccc(Cl)cc1 (stereo unspecified),inactive: -6.02%
8,CCc1ccccc1NC(=O)CN(C)C(=O)c1cc(C2CC2)nn1-c1ccccc1,inactive: -9.06%
9,O=C(CSc1nc2ccccc2c(=O)n1Cc1ccc(C(=O)NC2CC2)cc1)NCc1ccco1,inconclusive: 17.7%
10,COc1cc(/C=N\NC(=O)c2ccc(Cn3nc([N+](=O)[O-])c(Cl)c3C)o2)ccc1O,inactive: -6.39%
11,CCN1/C(=C/c2ccc3cc(C)ccc3[n+]2C)Sc2ccc3sccc3c21,inconclusive: 17.2%
12,CC(C)CC(C(=O)NC(C)(C)C)N(CC1CCCO1)C(=O)c1snc(C(N)=O)c1N (stereo unspecified),inactive: -2.78%
13,Cc1ccc(NC(=S)N(CCCN2CCCC2)Cc2cccn2Cc2ccc(Cl)cc2)cc1,inconclusive: 16.7%
14,Cc1ccc(NC(=O)Cn2c([N+](=O)[O-])cnc2C)cc1Cl,inconclusive: 90.5%
15,CC1CCCCN1C(=O)CCNC(=O)Cn1cnc2ccccc2c1=O (stereo unspecified),inactive: 3.03%
16,Cc1c(-c2nc(N)nc(Nc3ccc(F)cc3)n2)oc2ccccc12,active: 70.7%
17,O=C(CSc1nccn(-c2ccc(Br)cc2)c1=O)Nc1ccccc1F,inconclusive: 20.9%
18,CN(NC(=O)Nc1ccc(Cl)cc1)c1ncc(C(F)(F)F)cc1Cl,inconclusive: 25.4%
19,COc1ccc(-c2sc3ccccc3c2-c2ccc(OCCN3CCCCC3)cc2)cc1,inconclusive: 19.2%
20,Fc1ccc(-c2noc(-c3ccc4c(c3)CCO4)n2)cc1,active: 27.7%
21,COc1ccc(NC(=O)CSc2nc3sc4c(c3c(=O)n2-c2ccc(OC)cc2)CCN(C)C4)cc1,inconclusive: 24.8%

row,Compound,activation
1,CN(C)CCCNc1ncnc2sc(-c3ccccc3)cc12,active: 27.2%
2,CN(C)CCNc1c2c(nc3ccccc13)CCC2,inconclusive: 17.7%
3,COc1ccc(CNC(=O)C(c2ccco2)N(Cc2ccccc2)C(=O)Cc2cccs2)cc1 (stereo unspecified),inconclusive: 19.4%
4,OC1CCCN(Cc2c3ccccc3cc3ccccc23)C1 (stereo unspecified),inconclusive: 21.3%
5,O/N=C(/c1ccccc1)c1cc2cc(Br)cc(Br)c2o1,inconclusive: 19.6%
6,O=C(N/N=C/c1cc([N+](=O)[O-])ccc1O)c1cccc2cc[nH]c12,inconclusive: 16%
7,COc1ccc(-c2cc(C3CCNCC3)[nH]n2)cc1,inactive: -0.356%
8,Cc1c(C(=O)Nc2ccc(-n3cnnn3)cc2)oc2ccccc12,inconclusive: 19.6%
9,O=C(COc1ccc(/C=N/NC(=O)c2ccc(O)cc2)cc1)Nc1cccc([N+](=O)[O-])c1,inconclusive: 17%
10,Cc1cc(NC(=O)CSc2nnc(CNC(=O)c3c(F)cccc3F)o2)no1,inconclusive: 17.7%
11,CCN1C(=S)N[C@@H](c2cccs2)C(C(=O)OC)=C1C,inactive: -0.663%
12,COc1ccc(C(CCN2CCN(c3ccccc3)CC2)c2c(OC)cc(OC)c3c(-c4ccccc4)cc(=O)oc23)cc1 (stereo unspecified),active: 19.6%
13,CC(=O)Nc1ccc(S(=O)(=O)Nc2nc3ccccc3nc2Nc2ccc(C(=O)O)c(O)c2)cc1,inactive: -6.54%
14,CC(=O)c1nnn(-c2nc(N)nc(N(c3ccccc3)c3ccccc3)n2)c1C,inactive: -27.1%
15,C#CCOCCOCCOCCNc1nc(N2CCN(C(=O)C(Cc3cc4ccccc4[nH]3)n3cc(C(N)C(C)CC)nn3)CC2)nc(N2CCN(C(=O)C(Cc3cc4ccccc4[nH]3)n3cc(C(N)C(C)CC)nn3)CC2)n1 (stereo unspecified),inconclusive: 16.9%
16,CC(=O)Oc1cccc(N2C(=O)c3ccc(C(=O)Nc4c[nH]c(=O)[nH]c4=O)cc3C2=O)c1,active: 20.3%
17,Cc1nn(Cc2c(F)c(F)c(F)c(F)c2F)c(C)c1NC(=O)c1c(-c2ccccc2)nn(-c2ccccc2)c1C,inconclusive: 19%
18,CC(C)CN1C(=O)c2ccc(C(=O)Nc3c[nH]c(=O)[nH]c3=O)cc2C1=O,inconclusive: 16.7%
19,Cc1cc(NC(=O)/C(C#N)=C/c2ccco2)n(-c2ccccc2)n1,inactive: 4.9%
20,COc1cc(CN(CCN(C)C)Cc2ccccc2)ccc1OCc1ccccc1,inactive: -7.55%
21,CC(=O)Nc1ccc2c(CN3C(=O)NC(C)(c4ccc(C)cc4)C3=O)cc(=O)oc2c1 (stereo unspecified),inactive: -14.5%

row,Compound,activation
1,COC(C[C@H]1O[C@H]1[C@@H](O)[C@@H](C)OCc1ccccc1)OC,inconclusive: 58.2%
2,O=C(Nc1cc2c(=O)n(-c3ccc(Oc4ccccc4)cc3)ccc2oc1=O)c1ccccc1,inconclusive: 17.8%
3,Cc1[nH]c2ccccc2c1C(=O)CN1C(=O)C(=O)N(C2CCCC2)C1=O,active: 47.3%
4,COc1ccc(N(CC(=O)N2CCN(c3cc(C)ccc3C)CC2)S(=O)(=O)c2c(C)noc2C)cc1,inconclusive: 16.8%
5,CCOC(=O)CSc1nc2sc3c(c2c(=O)n1-c1ccccc1)CCN(C(C)C)C3,inactive: 7.89%
6,Cc1ccnc(NC(=O)c2cccc([N+](=O)[O-])c2C)c1,inactive: -3.42%
7,Oc1ccc(C[C@H]2CNC(=S)N2CC2CCCN2C[C@H](Cc2ccccc2)N2C[C@H](Cc3ccc(O)cc3)N(CC3CCCCCC3)C2=S)cc1 (stereo partly specified),inconclusive: 23.3%
8,CC1CCN(S(=O)(=O)c2nnc(NC(=O)COc3ccccc3F)s2)CC1,inconclusive: 17.1%
9,Cc1nc(Nc2ccc(F)cc2)nc(Nc2ccc(F)cc2)c1[N+](=O)[O-],inconclusive: 17.6%
10,O=C(Cc1ccc(Cl)cc1)Nc1ccc(-c2nnc(-c3ccco3)o2)cc1,inconclusive: 22.2%
11,OCCN1CCN(Cc2cc(Cl)c3cccnc3c2O)CC1,inactive: 2.17%
12,CC1(C)N=C(c2ccccc2)C(c2ccccc2)=N1,inactive: 0.894%
13,CCCCn1c(NC(=O)CC)c(C#N)c2nc3ccccc3nc21,inactive: -12%
14,COc1cccc(-c2csc3nnc(SCC(=O)c4ccc(NC(C)=O)cc4)n23)c1,inconclusive: 16.1%
15,COc1cccc(CNC(=O)C2CCC(CNc3nc(=S)[nH]c4ccccc34)CC2)c1 (stereo unspecified),active: 37.5%
16,CC(C)c1ccc(NC(=O)[C@H](NC(=O)[C@@H]2Cc3ccccc3CN2)c2ccccc2)cc1,active: 56.5%
17,COc1ccc(N(CC(=O)NCc2ccc3c(c2)OCO3)S(=O)(=O)c2ccc(O)c(C(=O)O)c2)cc1,inconclusive: 16.9%
18,COc1cccc(C(=O)N(Cc2ccccc2)Cc2cc3cc4c(cc3[nH]c2=O)OCCO4)c1,inconclusive: 16.7%
